# This list was built around the results that the source calls inconclusive (neither active nor inactive); the mix of calls is not that of the screen. Active and inactive are the calls of the source.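 The calls were made as follows, unless noted: active = thallium flux rate significantly above the same plate's solvent-only control wells, beyond their mean plus 3 SD; inconclusive = the two replicate wells gave conflicting results; inactive = the rest.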
# Assays:
# [1] = target: Solute carrier family 12 member 5 (Homo sapiens) (UniProt Q9H2X9); assay: retest of KCC2 transport modulation, ouabain-free – cell-based, HEK293 KCC2, thallium flux, FluoZin2, secondary assay 2, confirmation (AID 1715;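 active = thallium flux slope more than 3 SD above or below the plate's solvent-only control mean, mostly below; inconclusive = the two repeat wells disagreed; inactive = no significant shift from solvent-only controls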;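 also: raw slope with 0.1% DMSO as baseline and bumetanide as block control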); conditions: HEK293-KCC2, thallium flux FluoZin2 fluorescence; at 10 µM; actives lie on both sides; F/F0 rise rate, 10–20 s post-thallium
# [2] = compound effects on native HEK Tl+ uptake – HEK cells, counterscreen 1, counter-screen for KCC2 modulator project, confirmation (AID 1716); conditions: HEK293 parental cells, thallium flux FluoZin2, ouabain; at 10 µM; baseline-ratio fluorescence slope, 10–20 s after thallium
# [3] = target: Solute carrier family 12 member 5 (Homo sapiens) (UniProt Q9H2X9); assay: modulation of KCC2 thallium flux in HEK cells – cell-based, ouabain, retest, confirmation (AID 1717;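 active = thallium flux slope beyond 3 SD from same-plate DMSO control mean in most replicates, usually higher, sometimes lower; inconclusive = repeat tests gave conflicting results; inactive = no significant difference from controls in most replicates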;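 also: slope of initial-normalized fluorescence between seconds 10 and 20 after thallium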); conditions: HEK293-KCC2, thallium flux FluoZin2 fluorescence, at 10 µM, bidirectional: low = inhibitor, high = activator
# [4] = native HEK Tl+ uptake effects, second counter-screen – HEK cells, counterscreen 2, counter-screen for KCC2 modulator project, confirmation (AID 1718;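 active = thallium flux slope above the same plate's solvent-control mean plus 3 SD in both duplicate wells; inconclusive = duplicate wells that disagreed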;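 also: run without ouabain in cells lacking the KCC2 cotransporter; slope of fluorescence scaled to its starting value between 10 and 20 s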); conditions: HEK293 parental, thallium flux FluoZin-2 fluorescence slope; at 10 µM
# Method in brief: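 Read-out: thallium influx rate; assay system: parental HEK cells; replication: slope calculated separately for each replicate well; signal: FluoZin2-AM fluorescence (0.5 µM), ex 480 nm, em 540 nm, kinetic 1 Hz; benchmarks: bumetanide 2 mM; schedule: overnight cell culture at 37 °C, 48 min dye loading, compound before thallium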
# Sequence of UniProt Q9H2X9 (Q9H2X9 whole entry, looked up): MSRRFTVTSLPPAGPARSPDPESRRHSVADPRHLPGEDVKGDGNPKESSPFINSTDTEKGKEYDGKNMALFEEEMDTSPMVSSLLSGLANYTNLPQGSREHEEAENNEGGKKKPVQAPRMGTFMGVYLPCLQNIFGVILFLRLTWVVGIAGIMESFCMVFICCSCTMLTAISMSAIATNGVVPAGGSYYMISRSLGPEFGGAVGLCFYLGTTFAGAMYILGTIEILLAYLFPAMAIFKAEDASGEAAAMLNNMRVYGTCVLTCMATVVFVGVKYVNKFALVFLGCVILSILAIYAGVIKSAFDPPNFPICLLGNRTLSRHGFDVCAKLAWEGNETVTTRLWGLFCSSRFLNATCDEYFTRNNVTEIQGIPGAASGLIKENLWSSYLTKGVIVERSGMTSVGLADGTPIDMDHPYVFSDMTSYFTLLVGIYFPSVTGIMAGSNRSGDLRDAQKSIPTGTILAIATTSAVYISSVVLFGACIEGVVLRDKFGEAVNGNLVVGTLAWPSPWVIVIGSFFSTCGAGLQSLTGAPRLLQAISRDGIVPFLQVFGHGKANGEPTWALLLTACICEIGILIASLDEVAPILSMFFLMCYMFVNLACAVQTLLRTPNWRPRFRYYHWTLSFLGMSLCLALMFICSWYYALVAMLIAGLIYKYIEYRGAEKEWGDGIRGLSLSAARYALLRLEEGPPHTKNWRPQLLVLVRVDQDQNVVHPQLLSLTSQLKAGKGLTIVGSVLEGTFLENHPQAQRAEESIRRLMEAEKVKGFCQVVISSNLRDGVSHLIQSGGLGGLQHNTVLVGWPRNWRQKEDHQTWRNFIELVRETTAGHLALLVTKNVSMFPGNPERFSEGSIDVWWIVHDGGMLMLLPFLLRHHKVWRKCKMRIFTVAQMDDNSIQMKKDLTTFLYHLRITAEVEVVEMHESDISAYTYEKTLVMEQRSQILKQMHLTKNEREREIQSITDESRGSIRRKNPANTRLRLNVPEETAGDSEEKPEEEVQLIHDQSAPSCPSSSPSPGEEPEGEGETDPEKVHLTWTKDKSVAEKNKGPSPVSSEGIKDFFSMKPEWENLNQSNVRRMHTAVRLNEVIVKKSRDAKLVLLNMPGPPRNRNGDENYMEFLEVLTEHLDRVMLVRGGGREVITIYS
Compound,normalized thallium flux [1],thallium flux rate (normalised fluorescence) [2],"raw Tl+ flux slope (below DMSO = inhibition, above = activation) [3]",thallium flux slope [4]
O=C(CSc1nnc(-c2cnccn2)n1Cc1ccco1)c1ccc2ccccc2c1,inconclusive: 0.0245,inconclusive: 0.00641,,
CC(C)CNC(=O)c1ccccc1NC(=O)c1ccccc1N(C)S(C)(=O)=O,inconclusive: 0.0265,inconclusive: 0.00827,inactive: 0.0195,
Cn1cc(Cl)c(C(=O)NC(=S)Nc2sc3c(c2C#N)CCCCC3)n1,inconclusive: 0.0395,active: 0.019,active: 0.0333,
COC(=O)C(C)Sc1snnc1-c1ccccc1 (stereo not drawn),inactive: 0.0294,inconclusive: 0.00651,inactive: 0.015,
CCSc1nc(=S)cc(C)[nH]1,inconclusive: 0.0377,active: 0.0335,active: 0.0433,
O=S(=O)(Nc1nc2ccccc2nc1N1CCN(c2ccccn2)CC1)c1ccc(Cl)cc1,active: 0.0239,inactive: 0.00689,inconclusive: 0.0163,
C=CCN1C(=O)/C(=C/c2ccc(OC(C)=O)c(OCC)c2[N+](=O)[O-])SC1=S,inactive: 0.0307,active: 0.00498,inconclusive: 0.0179,
CNC(=O)C(=O)Nc1nc(C23CC4CC(CC(C4)C2)C3)cs1,inactive: 0.0277,active: 0.0127,inconclusive: 0.0224,
S=c1[nH]cnc2scc(-c3ccc(Br)cc3)c12,inconclusive: 0.0392,inconclusive: 0.0586,active: 0.0936,active: 0.0268
FC(F)(F)c1cccc(NCc2n[nH]c(=S)n2C2CCCCC2)c1,inactive: 0.0348,inconclusive: 0.0139,inconclusive: 0.0221,
O=C(NCCc1ccccc1)/C(=N\O)c1ccccc1,inconclusive: 0.0265,inactive: 0.0072,inactive: 0.0155,
O=C(NC1CCN(Cc2ccccc2)C1)c1cc(COc2ccc(F)cc2F)on1 (stereo not drawn),inconclusive: 0.0287,inactive: 0.00736,inactive: 0.0191,
Cc1ccc(C)c(NC(=S)N/N=C/C(C)c2ccccc2)c1 (stereo not drawn),inactive: 0.033,inconclusive: 0.0188,inconclusive: 0.0262,
CSc1ccccc1NC(=S)Nc1ccccc1C(F)(F)F,inactive: 0.0328,active: 0.0125,inconclusive: 0.0229,
O=C(NCc1ccco1)c1ccc(Br)c(S(=O)(=O)N2CCCCC2)c1,inconclusive: 0.0256,inactive: 0.00714,inactive: 0.0162,
N#Cc1c(-c2c(Cl)cccc2Cl)noc1/C=C/Nc1ccc(C(=O)O)cc1,active: 0.0248,inconclusive: 0.00619,active: 0.0129,
CSc1ncc(Cl)c(C(=O)C(C#N)c2nc3c(C)cc(C)cc3c(=O)[nH]2)n1 (stereo not drawn),inactive: 0.0338,active: 0.0163,inconclusive: 0.0246,
S=c1[nH]cnc2scc(-c3ccc(Cl)cc3)c12,active: 0.0578,inconclusive: 0.0595,active: 0.117,
COc1ccc(NC(=O)CSc2nnc(Cc3ccccc3)o2)c(OC)c1,inactive: 0.0286,inconclusive: 0.00588,active: 0.0143,
Cc1cccc(-n2c(SCC(N)=O)nc3c(c2=O)C2(CCCCC2)Cc2ccccc2-3)c1,inactive: 0.032,active: 0.0115,inconclusive: 0.0226,
O=C(NC(=S)Nc1ccccc1O)c1ccc(Cl)cc1Cl,inactive: 0.0326,active: 0.013,inconclusive: 0.0214,
O=C(OCCCCN1C(=O)c2ccccc2C1=O)c1n[nH]c2ccccc12,inactive: 0.0282,inconclusive: 0.00636,inconclusive: 0.0161,
Cc1ccc(C(=O)CCC2CCCCC2=O)cc1 (stereo not drawn),inactive: 0.0308,inactive: 0.00746,inconclusive: 0.0207,
CCOc1ccc(CCNC(=O)c2cc3sccc3n2C)cc1OCC,inconclusive: 0.0272,inconclusive: 0.00656,inactive: 0.0172,
N#Cc1c(NC(=O)CSc2nc(N)cc(=O)[nH]2)sc2c1CCCCCC2,active: 0.0268,inactive: 0.00745,inconclusive: 0.0176,
CCCOc1ccc(N2C(=O)C3ON(c4ccccc4)C(c4ccc(O)c(OC)c4)C3C2=O)cc1 (stereo not drawn),inconclusive: 0.0265,inactive: 0.00785,inactive: 0.0176,
